# Laboratory results: the supplement of paper PMC11417369
# ± gives the standard deviation of the averaged measurements. The list shows a part of the results.
# Test system: PfAP2-G AP2 domain (GST-tagged)
# Test: gcPBM binding intensity (ln(normalized median fluorescence intensity)); higher = stronger DNA binding
# Method in brief: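 The highest Masliner-normalised natural-log median intensity across replicate spots of either probe orientation is reported as binding intensity. GST-tagged P. falciparum DNA-binding domains expressed in E. coli were applied for 1 h to an Agilent 4 × 180k array of primer-extended double-stranded 36-bp intergenic genomic probes plus negative controls, and bound protein was detected with Alexa488 anti-GST antibody and scanned at 488 nm.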
row,Sequence,gcPBM binding intensity (ln)
1,ATATTAATATATGTGGCACACATGTGGAGTCCTATT [CACACA_site213],10.7 ± 0.43
2,TATCATTTCTAAAAAGGTACACATACATCATATATT [XGTACX_site3386],11.3 ± 0.87
3,GCGAGATGCTAAAATGCATGTTGGGCATTAGTTAAA [TGCATGCA_site586],9.99 ± 0.014
4,TATAATAATTCTTTGAGTACTTAAACATGTGAAATT [XGTACX_site955],11.3 ± 0.73
5,TATATATGTAAATGCACACATATGTGGATATACTTA [CACACA_site1699],10.03 ± 0.085
6,GTGTAGTAAAATCGATGTACGTACAAATCAATTATT [XGTACX_site7662],11.8 ± 0.83
7,AAAAAAATGAAGAAATGTACAAATTTCATTAATTTT [XGTACX_site354],10.5 ± 0.12
8,CATTTTTACCGGTACTGTACATAAAAAAAAAAAAAG [XGTACX_site1548],11.6 ± 1
9,TTATATGTTTTACAACGTACACAAAAAAAACTTATA [XGTACX_site4413],11.4 ± 0.96
10,TGTATAACCTGTGTTACACACATTATGATTTATATA [CACACA_site525],9.79 ± 0.2
11,GCAGGCTAAAAAATTACACACGAAAAAAATGAATTT [CACACA_site3417],9.86
12,CATATATGGTTATATACATGCACCATTATATTATTA [TGCATGCA_site520],10.4 ± 0.19
13,TATATAATATTTTTCACACACCATTTCCTTAAACAC [CACACA_site4862],10.3 ± 0.32
14,TAAAAAAAAAGAAGGGGTACATGGATAATATATAAA [XGTACX_site8386],11.5 ± 1
15,AATATATATAAAAAGGGAAAAATATATAAATAGATA [XGTACX_negctrl_site52],9.46 ± 0.34
16,AAAGATAAAAAAAGTACACACACACCGATATATATA [CACACA_site9006],11.6 ± 1
17,CACGAACACAAACACAAACACACATCATATATATAT [CACACA_site1322],10.1 ± 0.55
18,ACTTTAACCTGAACGGTGCATAAAATTTTGGCATTA,10.2 ± 0.23
19,AAAAAATTGACTAATGCACACAATTACAGATATATA [CACACA_site5010],10.1 ± 0.13
20,TCACAATTTTTTAGTACACACATATAAATATATAAA [CACACA_site1537],11.6 ± 1.2
21,TTTGTATCCTTTTTGACATGCAACCATTCGGGTACA [TGCATGCA_site506],11.3 ± 0.8
22,AAAAAAAAAAAAAACGCACACATTTTTACAATTCTA [CACACA_site3271],10 ± 0.18
23,TCGTGCATAAATCATACACACACACCGATATATATA [CACACA_site8767],10.1 ± 0.25

row,Sequence,gcPBM binding intensity (ln)
1,GTATACAAACATATAAATATAAATGTATTATTTGTT [CACACA_negctrl_site756],9.58 ± 0.2
2,TTTCATTAATCTAATAGTACAGAAAATTGAGAAAAA [XGTACX_site8395],11.1 ± 0.62
3,TCTATTAATTAATATACACACATTATGTATATATAT [CACACA_site2541],9.92 ± 0.042
4,GTTTTGGCTAACTATTCACACATTAAAATATTACCA [CACACA_site5016],10.3 ± 0.21
5,CACCATGATACATACACACAGACATATACGCATTCA [CACACA_site1008],10.3 ± 0.16
6,ACAATCCACAGGGGCGCACACATATAAGCAGTATAT [CACACA_site3817],10.6 ± 0.46
7,TAAACATAATATTTAACACACATGAAGATGTATATT [CACACA_site1036],9.66 ± 0.14
8,ATAAATATTTACAAAAGTACACATAACTTTAGATAT [XGTACX_site1685],11.4 ± 0.9
9,ATTTCACAGAGACACACACACAATATATTTCCTTTT [CACACA_site7773],10.09 ± 0.042
10,AAAAAATTAATAAAAACACACAAAAAAAATAAACAA [CACACA_site1907],10 ± 0.13
11,TTTGTTGTTTGGAGATGTACATATTTTACACTTTTT [XGTACX_site5965],11.4 ± 0.93
12,ATAAAATATATGAAGACACACATAACATCATATTTT [CACACA_site3144],9.895 ± 0.078
13,CATAATATGACATACACACACAAAAAAAAAAAAATA [CACACA_site1285],10.1 ± 0.28
14,AACCGGGCCTAAGATGTAATGCCTTAGCCTATAAAA [CACACA_negctrl_site479],9.59 ± 0.24
15,TTTATATTAAAATATTGTACGGACATTATTTTGTAA [XGTACX_site8128],11.4 ± 0.8
16,ACACACAATACAAAAGTGCATATAATAATTAATCAT,10.1 ± 0.18
17,ATACATCGTATATAAGTGCATATTAAGGTCTTAAGA [GTGCAC_site9560],10 ± 0.12
18,GAACATTTGAAATATGCACACATGTATAAACATACA [CACACA_site5463],10.1 ± 0.11
19,TATATATGTATCAAGTGTACAGTTTTAAAAAAAAAA [XGTACX_site6011],11.4 ± 0.87
20,TATTGACATATATTAGTGCAATAATGAAATCAAGTA,10 ± 0.13
21,CATATTATTCTTTTCACACACGCGTTAATAATAATC [CACACA_site3931],10.3 ± 0.2
22,TATTTCATTAATGTCACTTTGAAAGAAATGAAAAAA [CACACA_negctrl_site1803],10.1 ± 0.46
23,AAAAAAAAAAGACACACACACAAAATAAACAAACAA [CACACA_site7308],10.2 ± 0.18

row,Sequence,gcPBM binding intensity (ln)
1,TGTTTTTAAAAAAAAAAAAAATCACACCGGCAGGTA [CACACA_negctrl_site1437],9.82 ± 0.15
2,TGCGTATATATATACACACACATATATATATTTTAA [CACACA_site1952],9.92 ± 0.11
3,CTAAATTATAGATCAGTGCAATTTAATATGAGTCCA,10.4 ± 0.21
4,AAAAAAAAAAAAAACACACACATACAGACAAAAATG [CACACA_site83],10.3 ± 0.33
5,CCATAAAAATATAATACACACATATATATTAACATA [CACACA_site4102],10 ± 0.23
6,AGGTGAGCTCAGACTACACACACAAAGAAAAAAATA [CACACA_site8439],10.2 ± 0.28
7,TTGTAATTATTAAACACACACAAAATATATATAATA [CACACA_site2523],10.3 ± 0.18
8,TTTTTAAAGGTGATAAAACACACGATTTAGAAATGT [CACACA_site3160],10.1 ± 0.16
9,CCCACAGACAAAAACACACACAAAGGTGTTCTTATA [CACACA_site4840],9.865 ± 0.021
10,AAGAGAAAAAGAATGAAAGAAAAAAAAAAAAAATAT [CACACA_negctrl_site1527],9.54 ± 0.028
11,TTATCGACCAATAAAGCATGCAAAAAAAAAAAAAAA [TGCATGCA_site788],10.3 ± 0.73
12,CTACATAAAAAAATATGTACATATATATATATATAT [XGTACX_site667],11.2 ± 0.59
13,TAATGAAAATATATAACACACAAAAGTTATAAATAT [CACACA_site1189],9.775 ± 0.064
14,TTTAATATAACTATTTGTACATAAAGAATATAAATA [XGTACX_site4594],10.7 ± 0.42
15,TTTTTTTGCCATATTACACACACACGGGTAAACCCC [CACACA_site6874],10.5 ± 0.42
16,TAAATTTTTATTTGTAGTACTATATATATATATATA [XGTACX_site1026],11.2 ± 0.79
17,GTGTTGAATTATGTGCTTTTTTCTTTCTACTCAGTA [XGTACX_negctrl_site464],10.3 ± 0.11
18,TATTATTTTTTTATTCTATTAAAAAGAAAAAAATGA [CACACA_negctrl_site407],9.84 ± 0.3
19,AATTTATTTTTAAAAAGTACATACTTAAGAAAACGA [XGTACX_site3660],11.4 ± 0.79
20,ATATTTTATATTTCTTGTACATATATTTGTAGATAT [XGTACX_site1140],11.1 ± 0.64
21,TTTCTTACAACAACAACAAAAAAAAATAAATAAAAT [GTGCAC_negctrl_site711],9.91 ± 0.16
22,AAACAAATAAAATTTATTAAAAAGGTCATATTATTA [CACACA_negctrl_site85],10.2 ± 0.13
23,AGAAAAAAAAATTATACATGCATATACGTTTATTTT [TGCATGCA_site529],9.76 ± 0.2

row,Sequence,gcPBM binding intensity (ln)
1,TCGACAATTTTATAAAGTACTTATTAGAAATATGAA [XGTACX_site7133],11.1 ± 0.75
2,CCATTTAAAACATTTTGTACTTATTTTACATTTCTG [XGTACX_site4270],11.2 ± 0.61
3,GATTCATTTCATAATACACACAACAAATATTTCAAA [CACACA_site120],10.1 ± 0.3
4,ATAAAAAAAAGACACACACACATATATATATATATA [CACACA_site3073],10 ± 0.17
5,TCAACACACGTGGAATGTACTTTAGTATAAGAATTC [XGTACX_site7842],10.9 ± 0.47
6,TAAATATATTTCATGACATGCAACTTGTTTTTTTGT [TGCATGCA_site456],9.79 ± 0.17
7,ATATATATATTTTATGCATGTTCATTTTCTATATTT [TGCATGCA_site442],9.7 ± 0.19
8,ATAATATATACGTGTGTGCACATGACAAAAGCATAT,10.6 ± 0.18
9,GTTAATGTGGTTACTTGTACATATTAACGTCTTTTT [XGTACX_site2617],11 ± 0.61
10,AAAAAAAAAATATACACACACATATATATATATATA [CACACA_site3404],9.96 ± 0.37
11,TATATATATATATAAACACACATAAATATAAATATA [CACACA_site1121],10.04 ± 0.092
12,TCTTTTACAAAAGCTATAACATTCACCACATTATAA [GTGCAC_negctrl_site133],10.01 ± 0.028
13,ACCACATAAAACAAATGTACTTGAAATATATGCGTA [XGTACX_site5155],10.9 ± 0.61
14,ATGTATATGATTAAATGTACGTAAACAAATTTGTAA [XGTACX_site8174],11.4 ± 1
15,CAAAGGGAAATTAACACACACATATTTATATTTATA [CACACA_site7202],9.77 ± 0.085
16,TATTAATAAATTTATAAAACAGGTATATATATATAT [CACACA_negctrl_site615],10.1 ± 0.41
17,AAGAAAACTTAAAATAAAAGCATATTTTATCTTACA [TGCATGCA_negctrl_site366],9.57 ± 0.085
18,TGCAGTCTGGAGAAGAGTACATAGTATCTGGTAGCT [XGTACX_site2021],11.3 ± 0.78
19,ATATATATATATATATGTACACACATCAATCATATT [XGTACX_site4005],11.4 ± 0.88
20,AGAGTACAAGTAAATACACACATATAGATGAAAATA [CACACA_site6635],10.8 ± 0.57
